Data: article PMC4336329 (PLoS ONE, 2015)
About 14,000 (4.5%) of roughly 310,000 compounds showed an effect of 50% or more. Effects have a minus sign here. The list shows a part of the results.

target: human ether-à-go-go-related gene (hERG) potassium channel (human, UniProt Q12809); assay: primary screen, population patch clamp on CHO cells stably expressing hERG
Method: Briefly, Chinese hamster ovary (CHO) cells stably expressing the hERG channel were dislodged from tissue culture flasks and dispensed into PPC plates. […] During the recording, background leak currents were estimated by a 100 ms step to -80 mV from an initial holding potential of -70 mV and subtracted from the subsequent current measurement. The campaign was conducted in two phases using slight differences in recording protocol. In the first phase, the initial voltage pulse used a 100 ms step to -30 mV from a holding potential of -70 mV, a 2 s conditioning step to +25 mV, and a 2 s test step to -30 mV. During the second phase of the screen, the potential during the conditioning step was raised to +45 mV. In both phases of the campaign, a secondary voltage pulse was applied using the same parameters as the second phase initial pulse. The initial and secondary pulses were applied in the absence of compound, and upon application of 1 μM and 10 μM test concentrations. […]
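Note: peak tail current of the secondary pulse compared with the same well before compound.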

Sequence of human ether-à-go-go-related gene (hERG) potassium channel (Q12809 whole entry, looked up): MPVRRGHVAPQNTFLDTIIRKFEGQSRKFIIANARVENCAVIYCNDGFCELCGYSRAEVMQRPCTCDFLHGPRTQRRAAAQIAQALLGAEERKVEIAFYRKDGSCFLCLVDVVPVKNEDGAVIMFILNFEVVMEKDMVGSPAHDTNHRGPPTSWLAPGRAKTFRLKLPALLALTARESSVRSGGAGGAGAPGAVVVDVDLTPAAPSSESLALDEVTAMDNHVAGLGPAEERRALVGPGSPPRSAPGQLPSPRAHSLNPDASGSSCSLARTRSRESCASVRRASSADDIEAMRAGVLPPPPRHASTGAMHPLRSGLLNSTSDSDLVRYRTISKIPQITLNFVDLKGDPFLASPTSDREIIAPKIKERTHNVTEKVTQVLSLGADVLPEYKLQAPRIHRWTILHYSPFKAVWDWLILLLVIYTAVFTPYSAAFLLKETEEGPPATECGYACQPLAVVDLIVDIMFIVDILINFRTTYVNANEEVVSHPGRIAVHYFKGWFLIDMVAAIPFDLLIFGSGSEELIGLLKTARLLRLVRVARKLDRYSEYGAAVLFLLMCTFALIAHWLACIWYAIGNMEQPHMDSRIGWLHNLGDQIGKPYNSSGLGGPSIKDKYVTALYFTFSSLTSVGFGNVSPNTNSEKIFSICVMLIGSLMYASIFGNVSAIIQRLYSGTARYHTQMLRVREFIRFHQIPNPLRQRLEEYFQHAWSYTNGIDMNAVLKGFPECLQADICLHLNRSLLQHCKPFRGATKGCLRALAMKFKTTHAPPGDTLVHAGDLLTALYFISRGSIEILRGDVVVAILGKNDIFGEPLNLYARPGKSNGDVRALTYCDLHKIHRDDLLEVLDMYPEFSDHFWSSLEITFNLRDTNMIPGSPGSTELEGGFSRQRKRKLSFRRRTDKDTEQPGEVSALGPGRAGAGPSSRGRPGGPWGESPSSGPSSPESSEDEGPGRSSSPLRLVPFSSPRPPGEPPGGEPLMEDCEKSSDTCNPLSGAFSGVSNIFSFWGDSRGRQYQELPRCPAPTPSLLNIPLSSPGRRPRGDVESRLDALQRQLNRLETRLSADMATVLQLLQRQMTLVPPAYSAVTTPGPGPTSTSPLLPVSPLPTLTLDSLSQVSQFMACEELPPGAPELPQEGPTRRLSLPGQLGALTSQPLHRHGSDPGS

Point of comparison: COc1ccc(CN(C(=O)CSc2nnc(-c3ccc(F)cc3)o2)c2ccc(F)cc2)cc1, “hERG current change (%, negative = inhibition) at 10uM” value -9.46%. Against it:
- CC1CCC(NC(=O)CCn2ccc3cc(S(=O)(=O)N4CCCC4)ccc32)CC1 (stereo not drawn) — lower, -30.9%
- COC(=O)C(Cc1ccccc1)NC(=O)CC(C)CC(=O)Nc1ccc(OC)cc1OC (stereo not drawn) — higher, -4.69%
- CC(Sc1nc(NC(C)(C)C)nc(N(C)C)n1)C(=O)Nc1ccccc1 (stereo not drawn) — higher, 10.9%
- COc1ccc(NC(C)=O)cc1S(=O)(=O)N(C)Cc1c(C)nn(-c2ccccc2)c1C — lower, -13%
- Cc1ccc(C(=O)Nc2nc3ccccc3[nH]2)cc1 — higher, -5.03%
- O=C(NC1CCN(S(=O)(=O)c2ccc(F)cc2)CC1)c1cccc(F)c1 — higher, 6.24%
- COc1ccc(NC(=S)NCC(c2cccnc2)N2CCOCC2)cc1 (stereo not drawn) — lower, -11.3%
- CCN(CC)C(=O)n1cnc(-c2ccccc2)c1-c1ccccc1 — higher, 2.37%
- CCC1=C(OC(=O)N(CC)CC)N2C(=O)OC(=NCC(=O)OC)[C@]2(C)[C@H]2C1=CC[C@H]1C(=O)N(C)C(=O)[C@H]12 — lower, -11.1%
- NC(=O)CC(NC(=O)Cc1ccc(Cl)cc1)c1ccc(NCCOc2ccccc2)c([N+](=O)[O-])c1 (stereo not drawn) — higher, 1.19%
- CCn1c(=O)n(CC(=O)NCC2CCCO2)c(=O)c2c3c(sc21)COC(C)(C)C3 (stereo not drawn) — higher, 12.8%
- CCc1ccc(OCCOCC(O)CNC2CCCC2)cc1.Cl (stereo not drawn) — higher, 0.432%
- Cc1ccc(C(O)Cn2cc([N+](=O)[O-])nc2C)cc1 (stereo not drawn) — higher, 2.9%
- O=C(Nc1ccccc1C(=O)N1CCOCC1)c1ccc([N+](=O)[O-])cc1 — higher, 15%
- CC(C)NC(=O)CN1CCN(C(=O)CCl)CC1.Cl — higher, 16.2%
- COc1cc2c(c(OC)c1OC)-c1ccc(O)c(=O)cc1[C@@H](N)CC2 — lower, -11.8%
- O=C(O)C(=O)O.O=S(=O)(c1ccc(F)cc1)N1CCC(N2CCCCCC2)CC1 — lower, -26.3%
- CCOc1ccc(Br)cc1CSC(=N)N.Cl — lower, -40.3%
- CCOc1cc(C)ccc1OCc1nnc(SCC(=O)c2cccc([N+](=O)[O-])c2)n1C — lower, -26.4%
- COCCNC(=O)c1onc(CSc2ccc(F)cc2)c1C(=O)NCCOC — higher, -4.82%
- Cc1cccc(C)c1NC(=O)CN(C)C(=O)c1cc(S(=O)(=O)N2CCOCC2)ccc1N1CCCC1 — higher, -3.99%
- O=C(N/C(=C/c1ccc(Cl)cc1)c1nc2ccccc2[nH]1)c1ccco1 — higher, 9.34%
- CN(C(=O)COC(=O)c1ccc(Cl)cc1N)C1CCS(=O)(=O)C1 (stereo not drawn) — lower, -16.2%
- Cc1ccc(S(=O)(=O)/N=C(/c2ccc(F)cc2)N(C)C)cc1 — higher, 16.1%
- CC(C)(C)CC(=O)Nc1nnc(C(F)(F)F)s1 — higher, 7.13%
- O=C(Nc1ccc(Cl)cc1)c1ccc(-n2cccn2)c([N+](=O)[O-])c1 — higher, 4.78%
- O=C(CN1C(=O)COc2ccc(S(=O)(=O)N3CCCC3)cc21)Nc1cccc(F)c1 — higher, 14.9%
- O=C(COC(=O)/C=C/c1ccco1)NCCc1ccccc1 — higher, -0.27%
- Cc1ccc2oc(C(=O)Nc3ccc(S(=O)(=O)Nc4ncccn4)cc3)c(C)c2c1 — higher, 14.9%
- CC(=O)c1cc(CN2CCC(N3CCC(C(=O)N4CCCC4)CC3)CC2)cs1 — higher, -2.23%
- CCCn1cc(S(=O)(=O)c2ccc(Cl)cc2)c(=O)c2cc(OC)ccc21 — higher, 4.38%
- CCOc1ccc2[nH]c3c(NCCCOC)ncnc3c2c1 — lower, -10%
- COc1ccc(S(=O)(=O)N2CCCCCC2)cc1C(=O)NCc1cccs1 — lower, -68.3%
- CCCCN1C(=O)NC(c2cccc([N+](=O)[O-])c2)C(C(=O)OCC)=C1C (stereo not drawn) — lower, -27.7%
- CCN(CC1CCCN(CCc2cccc(OC)c2)C1)C(=O)c1ccoc1C (stereo not drawn) — lower, -62.8%
- COc1ccc(NC(=O)C2CCCN(S(=O)(=O)c3ccc4c(c3)oc(=O)n4C)C2)c(OC)c1 (stereo not drawn) — lower, -17%
- NC(=O)CSc1ccc(S(=O)(=O)N2CCOCC2)cn1 — higher, 10.2%
- CCCN(C(=O)c1ccc2c(SCC(=O)O)c3c(nc2c1)CCC3)c1cccc(C)c1 — higher, 17.8%
- O=C1c2ccccc2C(=O)C1c1ccc(O)cc1 — higher, -6.49%
- Cc1cc(C)nc(NNS(=O)(=O)c2ccc(F)c(Cl)c2)n1 — higher, 0.38%
- Nc1ccccc1C(=O)OCCc1ccccc1 — higher, 14.2%
- CC1(C)Cc2cccc(OCC(=O)N3CCN(c4cccc(C(F)(F)F)c4)CC3)c2O1 — higher, 1.57%
- CC(=O)NC(C)C(=O)OCC(=O)c1ccc(Cl)s1 (stereo not drawn) — higher, 5.1%
- COC(=O)c1c(NC(=O)CSc2ncnc3ccccc23)sc(C)c1C — higher, 2.81%
- O=C(O)CC(CN1C(=O)c2ccccc2C1=O)c1ccccc1 (stereo not drawn) — higher, 7.09%
- COc1ccccc1N1CCN(S(=O)(=O)c2ccc(Cl)cc2)CC1 — higher, 6.61%
- COc1ccc(NC(=O)c2cccnc2NCCc2ccccc2)cc1 — higher, 8.11%
- O=C(c1ccccc1)N1CCN(C(=O)c2ccccc2)CC1 — higher, 1.49%
- COc1ccc(NC(c2ccccc2F)P(=O)(Oc2ccccc2)Oc2ccccc2)cc1 (stereo not drawn) — higher, 7.48%
- COc1ccc(C2CC(=O)Oc3c(C(CCN4CCCCC4)c4ccc(N(C)C)cc4)c(OC)cc(OC)c32)cc1 (stereo not drawn) — lower, -16%
- COC(=O)Cc1c(C)nc2nc(-c3ccc(C)cc3)[nH]n2c1=O — higher, 12.8%
- CC(=O)c1sc(N2CCOCC2)nc1-c1ccccc1 — higher, -6.27%
- CC(=O)N(OCc1ccc(OC(C)C)c(Cl)c1)C(C)=O — higher, 18.4%
- NC(=O)COc1ccc(NC(=O)c2ccccc2-c2ccccc2)cc1 — lower, -9.89%
- Cc1ccc(Nc2nc3ccc(Cl)cc3n3cnnc23)cc1F — higher, 14.3%
- CN(C)CCCNC(=O)c1cc(Br)ccc1O — higher, 7.01%
- CC(C)OC(=O)CSc1nnc(COc2ccc([N+](=O)[O-])cc2)n1C — lower, -69.9%
- Cc1[nH]c(=S)c(C#N)c(C)c1CCC#N — higher, 17.6%
- CON(c1nc(Cl)nc(N(C)C)n1)S(=O)(=O)c1ccc(C)cc1 — higher, 6.43%
- O=C(CSc1nnc(-c2ccccn2)n1Cc1ccccc1)N1CCOCC1 — higher, -3.4%
- CC(O)c1ccc2c(c1)OCCOCCN(C)CCOCCO2 (stereo not drawn) — higher, -1.64%
- COC(=O)c1sccc1-n1cc(C#N)c(=O)n(C)c1=O — higher, 17.9%
- COc1ccc(CCNC(=O)C2CCN(S(=O)(=O)c3cccc4nonc34)CC2)cc1OC — higher, -3.78%
- COc1ccc(S(=O)(=O)N2CCN(C(=O)C3CCCO3)CC2)cc1 (stereo not drawn) — higher, 1.57%
- CC(=O)N(Cc1ccccc1C)c1cccc(C)c1C — higher, -2.94%
- CN(CC(=O)Nc1ccc(Cl)cc1)CC(=O)Nc1ccc(F)c(F)c1F — lower, -25.4%
- Cc1cc(Cl)cc(Br)c1OCCCCn1cncn1 — lower, -23.5%
- COc1ccc2ccccc2c1/C=N/NC(=O)CC1(C)OCCCO1 — higher, 3.31%
- COCCn1c(SCc2nc3ccccc3c(=O)[nH]2)nnc1-c1ccncc1 — higher, -4.64%
- Cc1ccc(C)c(NS(=O)(=O)c2ccc(OCC(=O)N3CCOCC3)cc2)c1 — higher, -7.34%
- Cc1cc(NC(=O)CN2CCN(C/C=C/c3ccccc3)CC2)c([N+](=O)[O-])cc1C — lower, -12%
- Cc1cccc(C2=N/C(=C\c3cccs3)C(=O)O2)c1 — higher, 28.6%
- O=C(Nc1ccc(Cl)c(Cl)c1)C1CC(=O)N(c2ccc(Br)cc2)C1 (stereo not drawn) — higher, 11.1%
- O=C(CSc1nnc(-c2cnccn2)n1Cc1ccco1)c1ccc(Cl)c(Cl)c1 — lower, -47%
- CC(=O)c1cnc2nc(SCc3cccc(C)c3)nn2c1C — lower, -19.5%
- CC(C)(C)C1CCC(=O)N(CCSc2ccccc2)CC1 (stereo not drawn) — lower, -38.9%
- Cc1ccc(S(=O)(=O)N(C)c2ccc(C(=O)NCC(c3ccco3)N(C)C)cc2)cc1 (stereo not drawn) — higher, -8.64%
- CCn1cc(CN2CCCC(C(=O)Nc3cccc(-c4cc5ccccc5[nH]4)c3)C2)c(C)n1 (stereo not drawn) — lower, -14.4%
- CCCC(CCC)C(=O)Nc1c[nH]c(=O)[nH]c1=O — higher, -2.66%
- N/C(Cc1ccc([N+](=O)[O-])cc1)=N\OC(=O)COc1cccc2ccccc12 — lower, -13.7%
- CCN1CCN(c2ccc(N3CCN(S(=O)(=O)c4ccc(C)c([N+](=O)[O-])c4)CC3)nn2)CC1 — lower, -56.6%
- CCOC(=O)c1sc(=S)n(-c2cccc(OC)c2)c1N — higher, -7.09%
- COc1ccc(-n2c(COc3cccc4ccccc34)nnc2SCC#N)cc1 — higher, -5.79%
- CCOc1ccc(-c2cc(CCCC(=O)NCCCOC)no2)cc1 — lower, -15.5%
- Cc1ccccc1NC(=O)CCN1CCCCCC1 — higher, 11.6%
- Cc1ccc(S(=O)(=O)Nc2ccc(S(=O)(=O)Nc3ncccn3)cc2)cc1 — higher, -3.43%
